Source: the supplement of paper PMC3334620
Over roughly 33,000 sequences, “E-score (-0.5 to 0.5)” has its median near -0.056; the highest 2% begin near 0.38. Some of the results follow.

target: Stb4 (UniProt P50104); test: PBM E-score (8-mer binding enrichment) (E-score (-0.5 to 0.5)); higher = stronger / more preferred TF binding; most listed sequences are background and not binding sites; settings: protein concentration: 200 nM; construct: GST-DNA-binding domain
In short: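 E-scores (a modified Wilcoxon-Mann-Whitney statistic) were assigned by the Universal PBM Analysis Suite to every ungapped eight-base word pooled with its reverse complement. The input came from universal all-10-mer Agilent arrays made double-stranded by primer extension and probed with GST-tagged yeast transcription factors at about 100-200 nM. Fluorescent anti-GST detected bound protein, and masliner normalised the scans.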

Sequence | PBM E-score
AGTATCGC | -0.105
GTATCGAA | -0.0419
CTTTTCGA | -0.212
TATTCGCA | -0.147
CGAACAAA | 0.265
AAGACGAG | -0.149
ATGTCACG | -0.0456
CGATGATC | -0.0104
AGGGAGGC | -0.158
ACTCGCGG | 0.0583
GAGGCAAA | -0.00172
GACGGTGC | -0.0351
AGCGTTGA | -0.308
GTGGCCAC | -0.0811
TGGACACA | -0.0935
GCAGGGTA | -0.0729
ATGAGGTG | -0.194
AATCCCTG | -0.161
ATCGCTCG | 0.027
ACTACACT | -0.14
ACGATAAC | -0.134
ACTGGAAC | 0.013
TTTATAAA | 0.0491
AAGCCAGT | -0.178
AGTCGATG | -0.131

Sequence | PBM E-score
AAGCCCCG | 0.159
AATTTGAC | -0.0566
GACTCAGA | -0.124
CAGACCAC | -0.224
TACCGAGA | 0.431
TTGAGCAA | -0.167
GCAGAGAC | -0.207
GAGTACGC | -0.153
ACTGCATC | -0.0835
CGGTTAAA | 0.313
GAGGTTGA | -0.0469
CCTAGCGA | -0.284
ATTATAAA | 0.0595
AGAGACGA | -0.061
ACCGTTCC | 0.376
CCGTGAGC | 0.111
CACCAGTA | -0.306
GCAGTGGC | -0.0908
ATAGGGGC | 0.00011
GAACTGGC | 0.1
ACTACGCG | 0.0956
CCGAATCG | 0.405
AGACCACA | -0.155
AGAAGAGC | -0.179
AAACGTCG | 0.104

Sequence | PBM E-score
AATTATGT | -0.165
AAGTGCCA | -0.128
GGATGCAA | 0.141
CGAAAAAC | 0.163
GTTGTGGA | -0.0843
CCCGTCCC | 0.114
GTAACTGA | -0.299
CGAGCATA | -0.0452
CAAGGCTC | -0.227
TCAACCGA | 0.291
CAGTATGG | -0.0406
AAACTGGA | -0.145
CATTACAA | -0.105
AAACATAT | 0.0375
CCACAGTC | -0.32
CAGCGTAA | -0.0838
CGATCGTC | 0.0608
CTAGAACA | 0.14
CCGTAAGA | 0.0328
ACCTTAGC | -0.258
GGGCCCCC | -0.0871
AACCCCGA | 0.331
TGAGCGAA | -0.122
AGGGTCAT | -0.205
AGCGTACG | -0.00449

Sequence | PBM E-score
GTGTAGTA | 0.0903
CTGGCTGA | -0.0974
AACGTCGT | 0.0289
GACCTAAA | 0.104
AGGTAGGA | -0.152
ACACGATA | 0.107
GAAAGCAA | 0.185
TGGTCCAA | 0.0289
CTAGGGAG | -0.242
AATCGGTA | 0.205
AGTTGGAA | -0.00656
GAATGTGA | -0.0287
CATTCGCA | -0.158
TCACCTAA | -0.0212
GAGAGCTC | -0.0422
CTCCACTA | -0.193
AATCGCGT | 0.0285
AGATCCAG | -0.22
ATCAGTTC | -0.0167
AGTCGCAA | -0.0974
ATTAATAG | -0.105
AAGGCCCT | -0.154
CCCACCAA | -0.12
CTCAAAGC | -0.00181
CGGCGAGA | 0.142

Sequence | PBM E-score
ATGCCACC | -0.0626
CTACATAC | -0.0746
ATTATAGC | -0.0903
AATGCCAG | -0.117
CCTGCATC | -0.189
ATGCGTAG | -0.06
ACGATACT | -0.101
CGCCAGCA | -0.163
TATATGCA | -0.103
GTAGTAGA | -0.181
CAACAACA | -0.224
GCTGGCGA | -0.0904
CAGTGGAC | -0.184
ATGCCTCA | 0.014
CGGAGCAG | 0.306
AGTACGAA | 0.016
TAGTCGAA | -0.0758
CTGTAGGC | -0.194
TCTCATCA | -0.275
ATTAATCG | 0.236
GGCTCTGA | -0.0938
ATCACTTA | 0.0643
GTGGGGCA | -0.0164
GGTGTAAA | -0.0367
CTACACTA | -0.294

Sequence | PBM E-score
CTTACTTA | -0.166
CACGTTAC | -0.205
ACAGGTCG | -0.065
AACCAACC | -0.0173
ATAGTTAC | -0.111
AATTGTGG | -0.229
GTCGTTCA | -0.0958
GATTTAAC | 0.171
CTACGGCA | 0.108
CCGGCCAA | 0.271
CTGTGTTA | 0.0856
GGTTTCTA | 0.139
ATTATCCA | -0.0958
AATCTTTC | 0.0363
GCACCCTA | -0.254
AATCCGTA | 0.12
AATCACTG | 0.00277
GTATGAAC | 0.00829
ATACACTG | -0.154
GCTGGGAC | -0.117
ACACTCGG | 0.354
GACATACC | 0.0488
ATATACCC | 0.202
CGCGAGCG | -0.016
ATGAGAAT | 0.0223

Sequence | PBM E-score
AAGACACT | 0.0624
AGGTCTGG | -0.236
CGCACGAG | -0.0922
CTATACAG | -0.204
AGTTCTTA | -0.0189
CGGTGCGC | 0.103
CACTGCTC | -0.0624
CACGTCTA | -0.263
GGTTATAC | 0.0761
AGATCGCA | -0.074
AACAGTCC | -0.33
GGCGGGCA | 0.135
ACGGACCT | -0.0202
AGGAAGCG | 0.011
CGAAGAGA | 0.157
AGGCATCA | -0.201
CGCCGACC | 0.221
CCGCACCC | 0.212
ACGCCCAG | -0.319
TCAGATAA | -0.0704
AGAAAGCT | 0.0286
GGGACTGA | -0.0999
CTGGATGA | -0.172
CCGCTAGA | -0.193
AGAAGGTG | -0.0949

Sequence | PBM E-score
GGGGTAAA | -0.0301
AGTAGGAG | -0.236
AATAACGT | -0.0631
ATAACAGG | -0.133
CGTTAACA | -0.0627
CGGGAGTC | 0.261
AACACTTA | -0.188
GCGAAAAC | -0.154
CATGGATA | -0.0308
CGTGTCGC | 0.0649
ACAGTCAG | -0.0929
ACAATTAA | 0.124
CACCAACC | 0.074
AGAAGCGA | -0.168
CAATCAGA | -0.15
CACACTGG | -0.18
GAGCTAGC | -0.0654
AAGATGAG | -0.31
GATAGTGA | -0.0698
CCAAGGGG | -0.12
CTCGCTAC | -0.127
GAGCCATA | -0.159
AAACCATA | -0.0199
AAGAGCAC | -0.153
CCACGCGA | -0.189

Sequence | PBM E-score
CAGAAGTA | -0.204
CTCGGCTC | 0.422
GCAGCCAA | -0.103
CATGGGGC | -0.152
ATGAGTGA | -0.175
AGGTAAGC | -0.112
TCAACCCA | -0.105
TGTAGTAA | 0.0142
AATTGAAA | -0.245
CATCATTC | -0.0643
ATGTGAAG | -0.0918
GATAATCA | -0.0752
CACTGAGG | -0.114
ATTCTGAC | 0.00922
CCAGAATC | -0.0922
GCTCTAAC | -0.0925
GCCTCACA | -0.109
ATCGACCG | 0.138
CGAGTTGC | 0.0987
CGAGAAGA | 0.0362
CGAAATCA | 0.185
AAGGCGAT | -0.271
CTGGGCGA | -0.138
ATCGCGAA | 0.104
ACAAACGA | 0.00615

Sequence | PBM E-score
CCAGCCGG | 0.243
TCAGTGGA | -0.133
TCAAAAAA | 0.0224
AGTGATAG | -0.33
TGCACGAA | -0.192
ACTGTTAT | -0.116
AAGTAACT | -0.0364
ATCTGCAT | -0.071
ATTGAAGC | 0.0426
TATTTGAA | -0.036
CCAACACA | -0.127
AATCGCAT | -0.112
AAGGTCTA | -0.0592
ACTCATAC | 0.082
CTTAGACA | -0.19
CCAGCGGC | -0.046
CTAGTAGC | 0.12
GCCCAGAA | -0.0393
CCTTAGCG | -0.147
GCCTTGAC | -0.0679
AAGTAACA | -0.0722
AAAAAGGT | -0.106
ACTACGAG | -0.257
CCGCTGAA | -0.0126
CCTGCTCA | -0.278

Sequence | PBM E-score
AATGCGTG | -0.121
AATCCGGA | 0.363
CGCCTCAA | -0.0881
CACTTTTA | -0.039
CGTGTGTA | 0.0595
GTCGAGTA | -0.132
AACGCGAA | -0.0643
GTTAGACA | 0.0418
AGTGAGTA | 0.0499
ACGCCGCC | 0.00985
GCGCGCAC | 0.0782
CGGTGACG | 0.0723
CTCATCTC | 0.0314
ATAACTAT | -0.133
TACTAATA | -0.00352
GGCATGAC | -0.138
TGCGCGAA | -0.0295
TCCATCGA | -0.0527
GGTAGAGA | 0.0223
AAATCGCG | -0.126
TCTACTAA | -0.047
CAATACCA | -0.204
GGCTCTTA | -0.0128
AACCTCAA | -0.173
CATATGCG | -0.0368

Sequence | PBM E-score
ATTTACCG | 0.382
GTCCGGTA | 0.191
CGTATTTC | 0.0292
GATTCGAC | -0.233
ATGGATCC | 0.213
TCGGAAGA | 0.455
ATGGGGTA | -0.00817
CGAGGACG | 0.258
GTACCAAA | -0.107
GGGTTGTA | 0.0863
GCGGCGAA | 0.145
GGGCTTAA | 0.0507
TAGTAGAA | 0.0104
ATTGTAGA | -0.132
ACTTGGTA | -0.265
ATACAGTG | -0.222
GGGGTACC | 0.0937
CTGGGGAC | -0.245
AGTTATTC | 0.0607
GTCGTGCA | -0.191
AAAGACTG | -0.256
AAGCCTTA | -0.0586
AGTGGTTA | -0.128
AGGGTAGG | -0.0936
CCATACGC | -0.113

Sequence | PBM E-score
ACGGAGCA | 0.13
ACTTTACT | -0.0966
CAACTGGC | -0.151
CCTCCACC | -0.0886
ACGATCAA | -0.0309
GCTGACCC | 0.0447
GAGATCGA | 0.00738
CACCAATA | -0.152
GCAATTCA | -0.036
GAGCCGTA | 0.191
CGCACGTC | -0.0639
ACCTGCTC | -0.00145
CCCCACTC | -0.214
AGCTGGCG | -0.107
TAGAGTGA | -0.0225
CATGTAAC | 0.0377
AGACTAAT | -0.00603
ACCAGATA | -0.0575
GACATCTC | -0.0702
AAGAGGTA | 0.0656
TATGCGAA | -0.048
CGTTGTAG | 0.0224
AACGCTTA | -0.0958
CTTAGGCA | -0.209
ACCGTCAC | -0.0593

Sequence | PBM E-score
AAGTCTAT | -0.194
CATTTGGG | -0.186
CAAAGGAA | -0.00457
CGCTATTA | -0.0567
AGGTATCG | 0.165
CTGGGGTC | -0.16
AGTGGACG | -0.0495
ACTATTTG | -0.051
GACCCCGC | -0.0145
AACCTGTA | -0.212
CTTGGCTA | -0.295
CCACCCTC | 0.0269
CCCAGGAA | -0.296
GAAGACGA | -0.119
ACGTTGCA | 0.0136
ATTCGAAT | -0.219
ATGCCGAA | 0.433
AGCAATTA | -0.0712
AATGACTG | -0.156
